{"source": "paper PMC5404542", "about": "“In Vitro and In Vivo Antifungal Profile of a Novel and Long-Acting Inhaled Azole, PC945, on Aspergillus fumigatus Infection” (Antimicrobial Agents and Chemotherapy, 2017)", "test_system": "A. fumigatus (ATCC 13073 [strain NIH 5233])", "experiment": "In vivo antifungal activity, intranasal treatment of temporarily neutropenic immunocompromised mice", "conditions": "collected on day 7 postinfection or on the day of dropout"}
{"smiles": "Cc1cc(N2CCN(c3ccc(C(=O)Nc4ccc(F)cc4)cc3)CC2)ccc1OC[C@@H]1CO[C@@](Cn2cncn2)(c2ccc(F)cc2F)C1", "note": "[PC945, 4-[4-(4-{[(3R,5R)-5-(2,4-difluorophenyl)-5-(1H-1,2,4-triazol-1-ylmethyl)oxolan-3-yl]methoxy}-3-methylphenyl)piperazin-1-yl]-N-(4-fluorophenyl)benzamide]", "values": [{"measurement": "GM level in bronchoalveolar lavage fluid (BALF)", "result": "significantly reduced"}]}
